This is one part of the list. Values were computed here from the reads of four pooled replicates and scatter widely.

This test concerns the target T1, Pho4 (S. cerevisiae) (UniProt P07270).
T1 sequence: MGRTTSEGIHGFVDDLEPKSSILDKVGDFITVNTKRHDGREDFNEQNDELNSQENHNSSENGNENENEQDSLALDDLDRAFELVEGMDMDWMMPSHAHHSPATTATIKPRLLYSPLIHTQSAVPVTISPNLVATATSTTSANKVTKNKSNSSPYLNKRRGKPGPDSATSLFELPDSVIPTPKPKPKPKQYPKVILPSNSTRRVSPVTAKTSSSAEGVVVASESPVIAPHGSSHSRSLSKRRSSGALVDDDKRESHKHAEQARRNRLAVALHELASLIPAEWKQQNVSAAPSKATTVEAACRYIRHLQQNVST
In words: relative binding free energy (BET-seq); higher = weaker binding. The note with it: reference: library average.
For TCGGGCACGTGTTCGG, the “relative binding free energy” value was -0.14 kcal/mol.
GTTCTCACGTGAGGTT: the “relative binding free energy” value stood at 0.33 kcal/mol.
Take TGTCACACGTGGGCGG: the “relative binding free energy” value is -0.01 kcal/mol.
For AATATCACGTGTAGTG the value was 0.01 kcal/mol; for TAAGACACGTGGTCGG, 0.01 kcal/mol.
Consider AGTGACACGTGGAGGC, for which the “relative binding free energy” value turned out to be 0.06 kcal/mol.
The value for GGTCGCACGTGATGAG was 0.11 kcal/mol; that for ATGGGCACGTGCAAGG was -0.06 kcal/mol.
As for GGTGCCACGTGAGCTG, the “relative binding free energy” value is 0.13 kcal/mol.
With TGACTCACGTGGGGGT, the “relative binding free energy” value turned out to be 0.05 kcal/mol.
Regarding AAGCGCACGTGGGTCG, the “relative binding free energy” value is -0.18 kcal/mol.
On to GCTGGCACGTGGATGC, for which the “relative binding free energy” value was 0 kcal/mol.
For the sequence GTTCTCACGTGTATTT, the “relative binding free energy” value amounted to 0.09 kcal/mol.
Consider AGGGGCACGTGGGTAG, for which the “relative binding free energy” value is -0.18 kcal/mol.
For GGGTGCACGTGTCTTA the value was 0.02 kcal/mol.
The value for GGTATCACGTGATGGG was 0.37 kcal/mol; that for TATGACACGTGAGTGC was 0.23 kcal/mol.
For the sequence TAGCTCACGTGATGGG, the “relative binding free energy” value stood at 0.37 kcal/mol.
In the case of GGTGCCACGTGGGTGG, the “relative binding free energy” value is -0.2 kcal/mol.
Consider TGGCGCACGTGGGCAT, for which the “relative binding free energy” value was -0.28 kcal/mol.
For the sequence TGTTTCACGTGATATT, the “relative binding free energy” value amounted to 0.3 kcal/mol.
AATTACACGTGGGGGA: the “relative binding free energy” value is -0.05 kcal/mol.
For TGGTGCACGTGCAAGG, the “relative binding free energy” value was -0.05 kcal/mol.
As to GGGCGCACGTGTAAGG, the “relative binding free energy” value worked out at 0.04 kcal/mol.
The value for CATTACACGTGAGTTA was 0.43 kcal/mol.
Take TGATACACGTGAGATT: the “relative binding free energy” value worked out at 0.3 kcal/mol.
In the case of TGTTACACGTGGGTGA, the “relative binding free energy” value was 0 kcal/mol.
For TGAATCACGTGTGTTC, the “relative binding free energy” value was determined as 0.11 kcal/mol.
For TTTGCCACGTGTATTT the value was -0.09 kcal/mol.
As to AGAGGCACGTGGATAT, the “relative binding free energy” value is -0.13 kcal/mol.
For TCGTGCACGTGTAGTG, the “relative binding free energy” value is -0.09 kcal/mol.
In the case of GTGCACACGTGTTGGA, the “relative binding free energy” value was 0.1 kcal/mol.
With GGTTCCACGTGTTCAG, the “relative binding free energy” value was found to be 0.17 kcal/mol.
As to TGTGTCACGTGATACG, the “relative binding free energy” value is 0.23 kcal/mol.
For TGTCGCACGTGTATAG the value was -0.09 kcal/mol; for CGTGTCACGTGAGATT, 0.27 kcal/mol.
As to GGCTGCACGTGGGATA, the “relative binding free energy” value was -0.09 kcal/mol.
For CTTAGCACGTGTTTAT the value was -0.07 kcal/mol; for GTAGTCACGTGGTATT, 0.14 kcal/mol; for TTAGGCACGTGACGGT, -0.15 kcal/mol.
Consider GTTGACACGTGTAGTC, for which the “relative binding free energy” value was 0.19 kcal/mol.
TTATTCACGTGGGTCT: the “relative binding free energy” value was found to be 0.16 kcal/mol.
As to TTAGGCACGTGCTTCG, the “relative binding free energy” value is -0.19 kcal/mol.
As for GAGTTCACGTGCGGTC, the “relative binding free energy” value came to 0.36 kcal/mol.
As to GGGTGCACGTGTCGTT, the “relative binding free energy” value worked out at 0.14 kcal/mol.
The value for GGGACCACGTGATGTG was 0.18 kcal/mol; that for CTTTTCACGTGTGTAT was 0.28 kcal/mol; that for GTGGGCACGTGTTGCT was 0.05 kcal/mol.
For the sequence CTTTTCACGTGATGGA, the “relative binding free energy” value was found to be 0.31 kcal/mol.
Turning to AGAAACACGTGGTTGG, the “relative binding free energy” value was -0.02 kcal/mol.
Take TGATTCACGTGGTGCG: the “relative binding free energy” value was 0.13 kcal/mol.
The value for ACTTGCACGTGGGTAT was -0.04 kcal/mol; that for AGAAGCACGTGGTTAT was -0.19 kcal/mol; that for ATTTGCACGTGTTACT was 0.08 kcal/mol.
For TTAGGCACGTGGCCGG, the “relative binding free energy” value was -0.17 kcal/mol.
Regarding TTGAACACGTGTGGTA, the “relative binding free energy” value came out at 0.03 kcal/mol.
Consider TAAATCACGTGGGGGA, for which the “relative binding free energy” value worked out at 0.03 kcal/mol.
On to GGATGCACGTGGTTTT, for which the “relative binding free energy” value was 0.02 kcal/mol.
As to ATGAACACGTGCGTTT, the “relative binding free energy” value stood at 0.02 kcal/mol.
CAGGACACGTGGATTG: the “relative binding free energy” value worked out at 0.12 kcal/mol.
In the case of TCTATCACGTGTGCAG, the “relative binding free energy” value was 0.19 kcal/mol.
For TTATTCACGTGGTGGT the value was 0.21 kcal/mol; for TGTTCCACGTGTATTA, 0.1 kcal/mol; for GAAGTCACGTGTCGTG, 0.13 kcal/mol.
For TGGGTCACGTGAGATA the value was 0.32 kcal/mol; for TTGAGCACGTGGCGGT, -0.1 kcal/mol; for TAGTGCACGTGATAGA, 0.04 kcal/mol.
TTGGTCACGTGCGTAA: the “relative binding free energy” value was -0.2 kcal/mol.
With ATTGTCACGTGAATTT, the “relative binding free energy” value came out at 0.24 kcal/mol.
Take CTGGACACGTGGTTTG: the “relative binding free energy” value was 0.04 kcal/mol.
For AGTTTCACGTGGACGA the value was 0.29 kcal/mol; for TAAAACACGTGTGGGA, 0.07 kcal/mol.
For TTGCTCACGTGTTAAT the value was 0.22 kcal/mol.
For TGTTGCACGTGGCCAG the value was -0.05 kcal/mol.
Turning to AATTGCACGTGTACGT, the “relative binding free energy” value was -0.09 kcal/mol.
As to AAGGTCACGTGAGGAG, the “relative binding free energy” value came out at 0.33 kcal/mol.
In the case of AAGATCACGTGGGTAG, the “relative binding free energy” value is -0.08 kcal/mol.
For ATTGTCACGTGTGATG the value was 0.14 kcal/mol.
Regarding TGTCGCACGTGGTGCA, the “relative binding free energy” value is -0.3 kcal/mol.
For the sequence TGATGCACGTGCAAGG, the “relative binding free energy” value is -0.06 kcal/mol.
On to ATTGGCACGTGGGCTT, for which the “relative binding free energy” value was -0.29 kcal/mol.
As to TATCGCACGTGTATTG, the “relative binding free energy” value is -0.08 kcal/mol.
As to TTATTCACGTGTAATG, the “relative binding free energy” value turned out to be 0.32 kcal/mol.
Consider TTCGTCACGTGGTCGT, for which the “relative binding free energy” value stood at 0.06 kcal/mol.
In the case of TGGCTCACGTGCGGGC, the “relative binding free energy” value was determined as 0.27 kcal/mol.
As to CTGAGCACGTGGTGGT, the “relative binding free energy” value worked out at 0 kcal/mol.
Take GTGCGCACGTGAATGG: the “relative binding free energy” value was determined as 0.2 kcal/mol.
Take TGTGGCACGTGGGATT: the “relative binding free energy” value was -0.11 kcal/mol.
In the case of TTCTGCACGTGTTCGG, the “relative binding free energy” value was -0.02 kcal/mol.
For the sequence TTGTTCACGTGTTGAT, the “relative binding free energy” value was determined as 0.28 kcal/mol.
On to GAGGTCACGTGCGTGG, for which the “relative binding free energy” value was -0.05 kcal/mol.
With TGGATCACGTGCTTGA, the “relative binding free energy” value was determined as 0.11 kcal/mol.
For TGTTTCACGTGTTGGC, the “relative binding free energy” value turned out to be 0.25 kcal/mol.
Regarding TCGGGCACGTGCGAGG, the “relative binding free energy” value was -0.16 kcal/mol.
On to GGAGGCACGTGGTCAT, for which the “relative binding free energy” value is -0.23 kcal/mol.
As to TGCTACACGTGTGCGT, the “relative binding free energy” value is 0.15 kcal/mol.
For the sequence TGGTTCACGTGAATTA, the “relative binding free energy” value was 0.3 kcal/mol.
The value for GTTGACACGTGGATGA was 0.02 kcal/mol.
Regarding TTGGCCACGTGTCGGT, the “relative binding free energy” value turned out to be 0.17 kcal/mol.
In the case of AGTATCACGTGACAGG, the “relative binding free energy” value came out at 0.2 kcal/mol.
For TAGGGCACGTGGGAGG the value was -0.19 kcal/mol.
The value for TGCACCACGTGTTGTT was 0.08 kcal/mol.
As for GGAGGCACGTGTGTTG, the “relative binding free energy” value was -0.02 kcal/mol.
Regarding TTAATCACGTGGAAGT, the “relative binding free energy” value was determined as 0.22 kcal/mol.
For TAGTACACGTGTTGTC the value was 0.06 kcal/mol; for TATTGCACGTGGGCAA, -0.18 kcal/mol.
For the sequence GGTGACACGTGATAGG, the “relative binding free energy” value is 0.26 kcal/mol.
The value for GATAACACGTGATTTT was 0.22 kcal/mol.
With GATTGCACGTGAGAAG, the “relative binding free energy” value came to 0.27 kcal/mol.
Take GCTGTCACGTGGGGGC: the “relative binding free energy” value is -0.05 kcal/mol.
On to ATAGTCACGTGAAAAT, for which the “relative binding free energy” value stood at 0.3 kcal/mol.
Consider GGTCACACGTGGTTCG, for which the “relative binding free energy” value came out at 0.07 kcal/mol.
For GGGGGCACGTGTTGGG, the “relative binding free energy” value was 0.02 kcal/mol.
In the case of ATTAACACGTGGGCGT, the “relative binding free energy” value was -0.07 kcal/mol.
For the sequence TATATCACGTGGTAAA, the “relative binding free energy” value is -0.02 kcal/mol.

(Values after the BET-seq Pho4 binding data (Le et al. 2018).)
